Each structure is given as a SMILES string. About 2,200 (0.71%) of roughly 310,000 compounds showed an effect of 50% or more. Effects have a minus sign here. The list shows a part of the results.

Chain of human ether-à-go-go-related gene (hERG) potassium channel (Q12809 whole entry, looked up): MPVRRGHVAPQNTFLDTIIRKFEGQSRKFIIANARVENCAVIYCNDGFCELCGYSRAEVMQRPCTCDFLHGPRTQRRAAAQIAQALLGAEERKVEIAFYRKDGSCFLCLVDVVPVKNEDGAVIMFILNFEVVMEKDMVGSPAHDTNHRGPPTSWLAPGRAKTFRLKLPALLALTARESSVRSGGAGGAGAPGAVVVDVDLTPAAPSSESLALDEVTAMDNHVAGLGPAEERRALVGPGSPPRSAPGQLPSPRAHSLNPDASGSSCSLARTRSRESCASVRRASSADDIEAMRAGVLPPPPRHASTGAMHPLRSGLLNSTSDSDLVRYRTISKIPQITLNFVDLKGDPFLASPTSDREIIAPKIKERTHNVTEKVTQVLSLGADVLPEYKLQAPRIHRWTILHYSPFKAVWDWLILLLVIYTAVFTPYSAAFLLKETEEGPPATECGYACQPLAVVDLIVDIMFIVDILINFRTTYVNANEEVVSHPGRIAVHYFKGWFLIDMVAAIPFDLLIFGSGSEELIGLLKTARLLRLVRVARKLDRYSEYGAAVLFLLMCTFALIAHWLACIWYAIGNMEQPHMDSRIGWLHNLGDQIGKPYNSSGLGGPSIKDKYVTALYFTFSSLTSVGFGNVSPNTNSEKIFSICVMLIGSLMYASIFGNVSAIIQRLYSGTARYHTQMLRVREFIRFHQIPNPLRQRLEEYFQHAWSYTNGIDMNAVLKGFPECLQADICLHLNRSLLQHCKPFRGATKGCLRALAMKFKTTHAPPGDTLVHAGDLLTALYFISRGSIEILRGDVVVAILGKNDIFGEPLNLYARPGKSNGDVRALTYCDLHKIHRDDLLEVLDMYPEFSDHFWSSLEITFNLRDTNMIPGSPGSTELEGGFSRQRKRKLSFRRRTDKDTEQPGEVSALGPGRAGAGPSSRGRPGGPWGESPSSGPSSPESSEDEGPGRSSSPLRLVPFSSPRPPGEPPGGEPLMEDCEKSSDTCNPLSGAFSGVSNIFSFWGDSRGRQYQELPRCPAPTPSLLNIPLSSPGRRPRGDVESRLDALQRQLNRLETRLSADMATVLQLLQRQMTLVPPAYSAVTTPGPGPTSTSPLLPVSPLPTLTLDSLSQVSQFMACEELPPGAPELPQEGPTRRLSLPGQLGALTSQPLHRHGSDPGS

This experiment addresses human ether-à-go-go-related gene (hERG) potassium channel (human, UniProt Q12809). The experiment in a line: primary screen, population patch clamp on CHO cells stably expressing hERG.
As to `COc1ccc(OC)c(NC(=O)C2CCN(S(C)(=O)=O)CC2)c1`, the “hERG current change (%, negative = inhibition) at 1uM” value worked out at 21.3%.

For `O=C(COc1ccccc1)N1CCN(c2ccccc2)CC1`, the “hERG current change (%, negative = inhibition) at 1uM” value worked out at 5.65%. In the case of `O=C1C(=O)N(CCN2CCOCC2)C(c2ccccn2)/C1=C(/O)c1ccc(F)cc1` (stereo not shown) it was -3.35%; in that of `Cc1cccc(-n2nnnc2SC(C)C(=O)NCCC2=CCCCC2)c1` (stereo not shown), 3.1%. `CC(=O)Nc1ccc(NC(=O)CCC(=O)OCC(=O)c2ccc(C)c([N+](=O)[O-])c2)cc1`: the “hERG current change (%, negative = inhibition) at 1uM” value amounted to 10.8%. Regarding `O=C(Nc1ccccc1)N(CCCN1CCOCC1)Cc1ccccc1F`, the “hERG current change (%, negative = inhibition) at 1uM” value is on record as -3.99%.

As to `Cc1nc2ccccc2c2oc(C(=O)N3CCC(N4CCCCC4)CC3)cc12`, the “hERG current change (%, negative = inhibition) at 1uM” value is -12.3%. Then `COc1ccc(N(CC(C)C)S(=O)(=O)c2nnc(NC(=O)CC(C)C)s2)cc1`, with 16%; and `Cc1cc(C)c(S(=O)(=O)c2cccc(Cl)c2)c(=O)[nH]1`, with 11.3%.

On to `CC1CCCCC12NC(=S)N(c1ccccc1)N2` (stereo not shown), for which the “hERG current change (%, negative = inhibition) at 1uM” value stood at 11.3%. As to `CCCn1c(C)nnc1SCC(=O)NC1CCCCC1`, the “hERG current change (%, negative = inhibition) at 1uM” value is on record as 16.6%. Then `O=C(Nc1ccc2[nH]c(=O)[nH]c2c1)c1cc(F)c(F)cc1Cl`, with 13.6%; and `Cc1cc(=O)oc2cc(NC(=O)Cc3ccccc3[N+](=O)[O-])ccc12`, with 14%; and `Cc1ccc(C(=O)C2=C(O)C(=O)N(c3ncccn3)C2c2ccccc2F)o1` (stereo not shown), with 23.9%. With `Cc1ccc(-c2nnn(CC(=O)N(Cc3ccccc3)C(C(=O)NC3CCCC3)c3ccncc3)n2)o1` (stereo not shown), the “hERG current change (%, negative = inhibition) at 1uM” value is on record as -2.99%. Then `O=C(CNC(=O)N1CC(=O)Nc2ccccc21)NCCc1cccc(F)c1`, with 22.7%; and `Cc1cccc(NC(=O)Cn2c(=O)n(Cc3ccco3)c(=N)c3c4c(sc32)COC(C)(C)C4)c1`, with 3%.

As to `O=C(Nc1nnc(SCc2ccc(F)cc2)s1)c1ccc2c(c1)C(=O)N(c1ccccc1Cl)C2=O`, the “hERG current change (%, negative = inhibition) at 1uM” value amounted to 21.4%. In the case of `CCCOc1c(Br)cc(C(=O)OCC(=O)NC(=O)c2cccn2C)cc1OC` it was 12.6%; in that of `CCCCNC(=O)C1CCC(=O)N1CCc1ccccc1` (stereo not shown), 15%. In the case of `COc1cccc(N/C(SC)=C(/C#N)C(N)=O)c1` it was 2.6%; in that of `COC(=O)CNC(=O)CSc1nnc(-c2ccc(OC)cc2)n1CC(C)C`, 10.2%; in that of `CCCCCn1c(CN2CCCCC2C)nc2c1c(=O)n(C)c(=O)n2C` (stereo not shown), -6.71%. For `CCOC(=O)c1cccc(OCC(O)CNCCOc2ccccc2F)c1` (stereo not shown), the “hERG current change (%, negative = inhibition) at 1uM” value is recorded as -4.08%.

Regarding `Cc1cc(C)nc(N/N=C/c2cc(C)n(CC(F)(F)F)c2C)n1`, the “hERG current change (%, negative = inhibition) at 1uM” value turned out to be 7.32%. In the case of `CCC(=O)c1ccc2c(c1)OCCO2` it was 11.9%; in that of `O=C(CSc1nnc(NC(=O)c2ccco2)s1)Nc1cccc(F)c1`, -2.93%.

As for `O=C(O)CSc1nnc(-c2cccnc2)n1Cc1ccccc1`, the “hERG current change (%, negative = inhibition) at 1uM” value is reported as 12.8%.

As to `CCn1c(CNC(=O)c2ccc(OC)c(OC)c2)nnc1SCC(=O)c1ccc(OC)cc1`, the “hERG current change (%, negative = inhibition) at 1uM” value is reported as 6.52%. With `CC(C)CSc1nnc2c3ccccc3n(C)c2n1`, the “hERG current change (%, negative = inhibition) at 1uM” value is given as -14.6%. Then `CCCn1nc(C(=O)NCC(C)(C)N2CCOCC2)c2ccccc2c1=O`, with -4.97%. Regarding `C[C@@H](NC(=O)c1nc[nH]c1C(=O)NC1CCN(C(=O)OC(C)(C)C)CC1)c1ccccc1`, the “hERG current change (%, negative = inhibition) at 1uM” value is 12.9%. In the case of `O=C(NCCCN1CCCCC1)c1ccc2c(c1)ncn2C1CCCC1` it was 12.6%; in that of `Fc1ccc(SCCc2cccc[nH+]2)cc1.O=P([O-])(O)O`, 10.6%; in that of `CCN(C(=O)COc1ccccc1)C1CCCCC1`, 2.31%. For the compound `Cc1ccccc1Nc1nc(N)nc(CSCc2c(C)noc2C)n1`, the “hERG current change (%, negative = inhibition) at 1uM” value is 10.1%. In the case of `CC(NC(=O)C1CCCN(S(=O)(=O)c2cnc[nH]2)C1)c1ccccc1` (stereo not shown) it was -3.11%; in that of `Cc1ncc(CN2CCCC(C(=O)Nc3ccc(-c4cccc(F)c4)cc3)C2)n1C` (stereo not shown), -20.9%. In the case of `Cc1ccc(S(=O)(=O)CCC(=O)OCC(=O)c2c(N)n(CC(C)C)c(=O)n(C)c2=O)cc1` it was -18.9%; in that of `O=c1cc(N2CCN(c3ccccc3)CC2)[nH]c(=O)n1-c1ccccc1`, 4.33%.

For the compound `O=C(CCNS(=O)(=O)c1ccccc1C(F)(F)F)N1CCN(S(=O)(=O)c2cccc(F)c2)CC1`, the “hERG current change (%, negative = inhibition) at 1uM” value is listed as 10.2%. Then `CCOn1c(=O)c(-c2cc(OC)ccc2OC)[n+]([O-])c2ccccc21`, with 8.96%. In the case of `Cc1c(NC(=O)N2CCCCCC2)c(=O)n(-c2ccccc2)n1C`, the “hERG current change (%, negative = inhibition) at 1uM” value turned out to be 17.9%. Then `Cc1cc(C)nc(N2CCCC(C(=O)Nc3cc(F)ccc3C)C2)n1` (stereo not shown), with 3.08%. In the case of `Cc1oc(-c2cccc(F)c2)nc1CN1CCCCC1CCc1ccccn1` (stereo not shown) it was -89.5%; in that of `CS(=O)(=O)Nc1ccccc1Oc1ccccc1`, 13.1%; in that of `Cc1nc2c3ccccc3nc(NNC(=O)CCC(=O)NC(C)C)n2n1`, 11.6%. Then `CCCCn1nnnc1NCc1ccc(OC)c(OC)c1OC`, with -0.552%. Take `CC(=O)O.CC(C)CC1NC(C(=O)O)Cc2c1[nH]c1ccccc21` (stereo not shown): the “hERG current change (%, negative = inhibition) at 1uM” value stood at 15.5%. In the case of `Cc1ccc(CC2S/C(=N/c3ccccn3)NC2=O)cc1` (stereo not shown) it was 14.3%; in that of `COc1ccc(NC2CCCN(C(=O)CCc3ccccc3F)C2)cc1` (stereo not shown), 6.54%; in that of `Br.CCN1C2=NCCCN2c2cc(C)c(C)cc21`, -11.9%. In the case of `CCn1c(CNC(=O)c2ccc3c(c2)OCO3)nnc1SCC(=O)Nc1ccccc1F` it was 11.6%; in that of `CCOC(=O)c1c(NC(=O)CN2CCN(C(=O)C3CCCO3)CC2)sc(C)c1C` (stereo not shown), 0.855%; in that of `CCOC(=O)N1CCC(N(CCOC)C(=O)Nc2ccc(C)c(C)c2)CC1`, -6.93%. In the case of `O=C(NCCCN1CCOCC1)c1sc2cc([N+](=O)[O-])ccc2c1Cl` it was -5.26%; in that of `CCOc1cc(/C=C2\C(=O)N(c3cccc(C(=O)O)c3)N=C2C(F)(F)F)ccc1OCC(=O)Nc1ccccc1OC`, 12.3%; in that of `OCC1(CCc2ccccc2)CCN(Cc2cnc(N3CCCC3)s2)CC1`, -32.2%. Regarding `Cc1ccccc1Nc1nc(N)nc(CSc2n[nH]c(N)n2)n1`, the “hERG current change (%, negative = inhibition) at 1uM” value stood at 14.9%. In the case of `CN(C(=O)CCN1C(=O)/C(=C/c2ccccc2)SC1=S)C1CCS(=O)(=O)C1` (stereo not shown) it was 9.13%; in that of `C=CCN(C(=O)CNS(=O)(=O)c1ccccc1)C(C(=O)NCCOC)c1cccnc1` (stereo not shown), 2.54%. In the case of `O=C1C(CSCc2ccccc2)NC(=S)N1c1ccccc1` (stereo not shown) it was 7.16%; in that of `CCOc1ccc(C(=O)N2CCn3c2nc2ccccc23)cc1`, 11%; in that of `O=C(Nc1ccc2c(c1)OCO2)c1ccc(Cl)c(S(=O)(=O)N2CCOCC2)c1`, -5.6%. In the case of `Cc1csc2nc(O)c(C(=O)NCCC3=CCCCC3)c(=O)n12` it was 6.1%; in that of `COc1ccc(NC(=O)C2CC2)cc1-n1cnnn1`, 8.86%; in that of `CC(=O)Nc1ccc(NC(=O)C2CCCN2C(=O)NCc2ccccc2)cc1` (stereo not shown), 17.1%. Take `CCOP(=O)(c1ccccc1)c1nc(-c2ccccc2C)oc1NCc1ccccc1` (stereo not shown): the “hERG current change (%, negative = inhibition) at 1uM” value is listed as 12.1%. For the compound `CCC1CCCCN1CCCNC(=O)c1c(O)nc2cc(C)ccn2c1=O` (stereo not shown), the “hERG current change (%, negative = inhibition) at 1uM” value is 4.81%. Then `CCOc1ccc(C(=O)NCC(=O)OCc2nnc(-c3ccccc3)o2)cc1OCC`, with 1.47%; and `CC(c1ccccc1)n1cc(C(=O)NCC2COc3ccccc3O2)nn1` (stereo not shown), with 11%; and `COc1ccc(-c2c(C)nn3c(N)c(C#N)cnc23)cc1OC`, with 14.1%. On to `COc1cc(/C=C2/C(=O)NC(=O)N(c3ccc(C)cc3)C2=O)cc(OC)c1OC`, for which the “hERG current change (%, negative = inhibition) at 1uM” value worked out at 11.4%. In the case of `Cc1nnc2n1N=C(c1ccc(OC(F)F)cc1)C(C)S2` (stereo not shown) it was -2.36%; in that of `COc1ccc(Nc2nc(-c3ccccc3F)nc3ccccc23)cc1OC`, 10.6%; in that of `CN(C)S(=O)(=O)c1cccc(C(=O)NC(=S)N(CCC#N)Cc2cccnc2)c1`, 2.57%. In the case of `CCCCNC(=O)NC1CCCC1` it was 13.4%; in that of `COc1ccc(CCNC(=O)C(=O)NCC2OCCN2C(=O)c2ccc(Cl)cc2)cc1` (stereo not shown), 6.48%; in that of `COc1cc(S(=O)(=O)N2CCN=C2c2ccccc2)ccc1Cl`, 10.7%. With `c1nc2ccc(Cc3ccc4nc[nH]c4c3)cc2[nH]1`, the “hERG current change (%, negative = inhibition) at 1uM” value is given as 8.71%. In the case of `CCc1cc2c(=O)n(Cc3ccccc3)c(SC3CCOC3=O)nc2s1` (stereo not shown) it was -24.2%; in that of `O=C(Oc1ccc2c(c1)C(=O)c1ccccc1CO2)c1ccccc1`, 6.3%. In the case of `O=C(NNS(=O)(=O)c1ccc(Cl)cc1)c1sccc1-n1cccc1` it was 3.83%; in that of `CCOC(=O)CC(NC(=O)c1cccc2c1C(=O)N(Cc1cccnc1)C2)c1ccc(OC(C)C)cc1` (stereo not shown), 7.87%. With `CCC(C)n1c(=S)[nH]c2c(sc3ccc([N+](=O)[O-])cc32)c1=O` (stereo not shown), the “hERG current change (%, negative = inhibition) at 1uM” value came to 15.7%. In the case of `Cc1cccn2c(=O)nc(SCC(=O)N3CCN(c4ccccc4)CC3)nc12` it was -30.9%; in that of `CN(NC(N)=O)c1ncc(C(F)(F)F)cc1Cl`, 8.95%; in that of `COc1ccc(NC(=O)C(CCSC)NC(N)=O)cc1Cl` (stereo not shown), -0.296%.

Source of the values: publication PMC4336329 (PLoS ONE, 2015).
